PubChem BioAssay (NCI)
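Dose response: 5 concentrations. Exposure: 48 h. Format: 96-well plates. Endpoint: linear interpolation; highest concentration if not reached. GI50 marks 50% less growth.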 Some entries of the source have several records that differ or are many. The other results are left out here. There may be further records. For part of these data: Results that share an entry are repeats across runs, samples, wells, individuals or studies. Brackets tell where a record comes from. Letters hold for one entry only.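 TGI denotes the concentration required for complete inhibition of growth.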 For part of these data: A record mostly stands for its own series of concentrations, not given here; a value can be the end of its range.

What was measured:
Assay in all cases: growth of human tumour cells (NCI), 48 h
[1] = tested on: SN12C renal
[2] = tested on: M14 melanoma
[3] = tested on: EKVX NSCLC
[4] = tested on: IGROV1 ovarian
[5] = tested on: CAKI-1 renal
[6] = tested on: TK-10 renal
[7] = tested on: MDA-MB-435
[8] = tested on: OVCAR-4 ovarian
[9] = tested on: HS 578T breast
[10] = tested on: SNB-75 CNS
[11] = tested on: A498 renal
[12] = tested on: CCRF-CEM leukemia
[13] = tested on: HT29 colon
[14] = tested on: HL-60(TB) leukemia
[15] = tested on: PC-3 prostate
[16] = tested on: HCT-116 colon

CCCCCCCCCCC(O)[C@H]1CCC(C2CC[C@H]([C@H](O)CCCCCCCCCCC(O)CC3=CC(C)OC3=O)O2)O1 (stereo partly drawn)
TGI [1]: 5.84 µM and > 100 µM
TGI [2]: 3.21 µM and 44.4 µM
TGI [3]: 6.41 µM and > 100 µM
TGI [4]: 3.68 µM and > 100 µM
TGI [5]: 5.42 µM and 86.7 µM
TGI [6]: 3.94 µM and 54.2 µM

OCC1OC(NCCNCCNC2OC(CO)C(O)C(O)C2O)C(O)C(O)C1O (stereo not drawn)
GI50 [7]: 1.72 µM [sample A, 1 test] and > 100 µM [sample B, 1 test]
TGI [7]: 3.23 µM [sample A, 1 test] and > 100 µM [sample B, 1 test]
GI50 [8]: 1.63 µM [sample A, 1 test] and > 100 µM [sample B, 1 test] and > 100 µM [sample C, 1 test]
TGI [8]: 3.54 µM [sample A, 1 test] and > 100 µM [sample B, 1 test] and > 100 µM [sample C, 1 test]

O=C1/C(=C/c2ccccc2F)CNC/C1=C\c1ccccc1F
TGI [9]: 3.09 µM [sample A, mean of 3 tests] and > 36.2 µM [sample B, mean of 2 tests]

Cc1nn(-c2ccccc2)c2c1CC(=O)Nc1ccccc1-2
TGI [10]: 6.8 µM and 99.4 µM
TGI [11]: 3.03 µM and 229 nM
TGI [12]: 9.65 µM and 702 nM
TGI [13]: 4.54 µM and > 100 µM
TGI [14]: 2.26 µM and 57 nM
TGI [15]: 3.11 µM and > 100 µM
TGI [16]: 5.09 µM and > 100 µM
